# Measurements: paper PMC4336329 (PLoS ONE, 2015)
# The whole screen tested about 310,000 compounds, of which about 2,200 (0.71%) showed an effect of 50% or more. Effects have a minus sign here. The list shows a part of the results.
# Molecular target: human ether-à-go-go-related gene (hERG) potassium channel (human, UniProt Q12809)
# Assay: primary screen, population patch clamp on CHO cells stably expressing hERG
# human ether-à-go-go-related gene (hERG) potassium channel, sequence (Q12809 whole entry, looked up): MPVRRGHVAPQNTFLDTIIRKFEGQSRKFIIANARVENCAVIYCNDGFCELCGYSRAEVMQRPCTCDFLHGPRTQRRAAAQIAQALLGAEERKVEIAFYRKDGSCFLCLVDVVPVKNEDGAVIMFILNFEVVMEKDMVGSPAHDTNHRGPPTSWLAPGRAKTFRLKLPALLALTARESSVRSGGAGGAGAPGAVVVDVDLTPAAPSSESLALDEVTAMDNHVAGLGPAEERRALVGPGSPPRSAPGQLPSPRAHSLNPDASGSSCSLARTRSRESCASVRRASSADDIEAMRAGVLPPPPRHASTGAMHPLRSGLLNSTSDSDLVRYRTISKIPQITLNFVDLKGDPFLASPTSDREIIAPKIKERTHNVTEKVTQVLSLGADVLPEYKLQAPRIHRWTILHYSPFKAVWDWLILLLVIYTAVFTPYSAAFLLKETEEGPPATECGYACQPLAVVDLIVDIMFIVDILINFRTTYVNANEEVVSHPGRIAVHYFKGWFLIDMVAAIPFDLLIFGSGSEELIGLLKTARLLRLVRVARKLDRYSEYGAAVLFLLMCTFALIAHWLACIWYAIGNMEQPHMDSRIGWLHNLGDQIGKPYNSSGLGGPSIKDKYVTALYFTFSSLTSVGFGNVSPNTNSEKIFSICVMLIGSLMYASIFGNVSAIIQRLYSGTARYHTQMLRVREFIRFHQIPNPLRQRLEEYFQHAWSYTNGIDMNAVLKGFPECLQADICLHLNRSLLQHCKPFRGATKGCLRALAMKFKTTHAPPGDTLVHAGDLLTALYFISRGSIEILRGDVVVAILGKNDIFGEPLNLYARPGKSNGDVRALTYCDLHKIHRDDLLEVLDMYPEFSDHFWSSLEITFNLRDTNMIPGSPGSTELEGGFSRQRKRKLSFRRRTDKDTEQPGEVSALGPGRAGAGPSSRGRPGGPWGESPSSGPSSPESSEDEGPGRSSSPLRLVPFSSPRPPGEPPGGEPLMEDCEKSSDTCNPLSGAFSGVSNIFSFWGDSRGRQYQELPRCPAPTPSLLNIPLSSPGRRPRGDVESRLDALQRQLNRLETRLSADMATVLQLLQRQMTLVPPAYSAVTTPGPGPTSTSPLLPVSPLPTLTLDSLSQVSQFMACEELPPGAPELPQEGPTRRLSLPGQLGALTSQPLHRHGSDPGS
row,SMILES,"hERG current change (%, negative = inhibition) at 1uM [%]"
1,CCC(=O)Nc1ccc(/C=C(\C(C)=O)C(=O)c2ccccc2)cc1,11.4
2,O=C(CN1C(=O)C2C3C=CC(C3)C2C1=O)OCC(=O)c1ccc(Cl)c([N+](=O)[O-])c1 (stereo not shown),16.5
3,CN(Cc1ccccc1)c1oc(COc2ccccc2F)nc1C#N,-4.24
4,O=C(c1noc2c1CCCC2)N1CCc2c([nH]c3ccccc23)C1c1ccccn1 (stereo not shown),2.62
5,Cc1csc(NC(=O)CSc2ccc(-c3ccc(F)cc3)nn2)n1,-8.25
6,O=C(c1cc2nc(-c3ccco3)cc(C(F)(F)F)n2n1)N1CCc2ccccc2C1,2.5
7,Cn1cc([C@@H]2C[C@H]3CN(Cc4cccc(Cl)c4)C(=O)[C@]34CCCN24)c2ccccc21,-33.2
8,CCOC(=O)c1sc(N)c(C(=O)OCC)c1C,12
9,Nc1ccccc1SCc1csc(-c2ccc(Cl)cc2)n1,10.6
10,Cc1nc2ccc(NC(=O)c3cncc(Br)c3)cc2s1,9.66
11,Cc1ccc2nc3c(cc(C(N)=S)c(=N)n3CCCOC(C)C)c(=O)n2c1,-65.1
12,CCn1c(Cc2ccc(OC)cc2)nnc1SCC(=O)NC1CCCCC1,16.1
13,Cc1ccc(N(C)C(=O)N2CCN(S(=O)(=O)c3ccc4ccccc4c3)CC2)cc1,0.268
14,COC(=O)C(NC(C)=O)(Nc1ccc(Br)cn1)C(F)(F)F (stereo not shown),6.68
15,CCC(CC)NC(=O)C1CCN(c2ccc(S(=O)(=O)N3CCOCC3)cc2[N+](=O)[O-])CC1,5.49
16,CN1C2CCC1CC(NC(=O)c1ccc(Cl)cc1)C2 (stereo not shown),12.2
17,CCCOC(=O)c1ccc(-c2ccc(C=O)o2)cc1,10.8
18,CN(C)C1(CNC(=O)Cc2ccccc2F)CCCCC1,9.54
19,Cc1c(CN2CCCC(C(=O)c3cccc(OC(C)C)c3)C2)c(=O)n(-c2ccccc2)n1C (stereo not shown),-28.6
20,CC(C)n1c(NCc2ccc(N(C)C)cc2)nc2ccccc21,-6.31
21,O=C(COc1ccc(Br)cc1)NC1CC1,9.71
22,Cc1nc2sc(C(c3cccs3)N3CC(C)CC(C)C3)c(O)n2n1 (stereo not shown),-2.36

row,SMILES,"hERG current change (%, negative = inhibition) at 1uM [%]"
1,Cn1ccnc1Sc1nnnn1-c1ccccc1,0.239
2,CCOC(=O)c1c(C)n(C)c2cc(-c3ccc(F)cc3)c(O)cc12,15.6
3,COCc1nnc(NC(=O)c2ccc(S(=O)(=O)N3CCCc4ccccc43)cc2)o1,12.1
4,COc1ccc(/C=N/NC(=O)c2ccc(-c3ccccc3)cc2)cc1O,11.3
5,O=S(=O)(c1ccccc1C(F)(F)F)N1CCOCC1,5.02
6,O=C(O)CNC(=O)CCCn1nnc2ccccc2c1=O,4.98
7,O=C(NC1CCCC1)C1CCN(C(=O)c2ccc(Cl)cc2Cl)CC1,11
8,O=S1(=O)NC(=NCc2ccco2)c2ccccc21,3.95
9,CCC(C)NC(=O)C1(C)CCC(=O)N1Cc1ccccc1OC (stereo not shown),-0.857
10,Cc1ccc(C(C)C)c(OCC(=O)NNC2=CC(=O)CC(C)(C)C2)c1,5.27
11,COC(=O)c1ccccc1NC(=O)COC(=O)CSCC(=O)N1CCOCC1,-0.705
12,COc1ccc(OC)c(C(=O)/C=C/c2ccccc2C(F)(F)F)c1,15
13,CCCOc1ccc(C2C(C#N)=C(N)Oc3nc[nH]c(=O)c32)cc1OC (stereo not shown),8.94
14,CC(C)N(Cc1ccccc1)C(=O)COC(=O)c1ccccc1SCC(=O)N1CCCC1,-0.506
15,CCCCNC(=O)N(O)C1N(/N=C/c2ccc(N(C)C)cc2)C(=S)SC1(C)C (stereo not shown),10.4
16,COc1ccc(C(=O)Nc2ccc(S(=O)(=O)N3CCCC3)cc2)cc1[N+](=O)[O-],18.6
17,O=C(CN1C(=O)C2CCCCC2C1=O)N1CCN(c2ccc(F)cc2)CC1 (stereo not shown),3.66
18,COc1c(Cl)cc(Cl)cc1CNCCNCCO.Cl,8.71
19,Nc1ccc(C(=O)OCC(=O)c2cccc([N+](=O)[O-])c2)cc1,9.37
20,O=S(=O)(c1ccc(Cl)nc1)N1CCN(c2ncccn2)CC1,8.91
21,CC[n+]1c(/C=C/Nc2ccccc2)sc2ccccc21.[I-],-62.8
22,Cc1cccc(N2CCN(c3ccc(N4C(=O)CCCC4=O)cc3[N+](=O)[O-])CC2)c1C,10.5

row,SMILES,"hERG current change (%, negative = inhibition) at 1uM [%]"
1,COc1ccccc1/C=C/C=N/n1c(-c2cc(-c3ccccc3)n[nH]2)n[nH]c1=S,9.98
2,COc1ccc(NC(=O)CCN2CCN(Cc3ccccc3)CC2)c(OC)c1,7.82
3,CCOc1ccc(C(=O)NC(C)CCc2ccccc2)cc1 (stereo not shown),15
4,O=C(NC(=S)N1CCN(c2ccc([N+](=O)[O-])cc2)CC1)c1ccco1,-6.92
5,CSc1ccc(S(=O)(=O)NCc2ccccc2)cc1,10.4
6,COc1ccc2cc(CCNC(=O)c3cccs3)c(=O)[nH]c2c1,10.4
7,CCOc1ccc(S(=O)(=O)NCc2cccnc2)c2ccccc12,7.28
8,Cc1cc(C)cc(N(CC(=O)N2CCCC2)S(C)(=O)=O)c1,7.46
9,O=S(=O)(c1ccc(Cl)cc1)c1nc(-c2ccccc2F)oc1NCCCN1CCOCC1,3.44
10,C/C(=C\c1ccccc1)CN1CCN(Cc2ccc(C)o2)C(CCO)C1 (stereo not shown),-2.15
11,Cc1sc(NC(=O)CSc2nnc(C(C)C)n2C)c(C#N)c1C,7.06
12,COc1cc(O)c(C(CCN2CCN(c3ccccc3)CC2)c2ccc(N(C)C)cc2)c(OC)c1 (stereo not shown),19.4
13,O=C(NC(NC(=O)c1ccccc1)c1cccc([N+](=O)[O-])c1)c1ccccc1,4.97
14,COc1ccc(C2=CC(=O)C[C@H](c3ccc(F)cc3)C2)cc1OC,9.85
15,CC(=O)Nc1sc(NC(=O)c2ccc(Cl)cc2)nc1-c1cccs1,0.882
16,COc1ccc(Cl)cc1C(=O)NNC(=S)NC(=O)c1cc(-c2ccccc2)nc2ccccc12,10
17,O=C(NCC(=O)N(c1ccccc1)C(C(=O)NC1CCCC1)c1cccnc1)c1ccco1 (stereo not shown),10.7
18,CNC(=O)CSc1nc2ccccc2c(=O)n1-c1cc(OC)ccc1OC,3.87
19,Cc1ccc(-n2c(SCC3CCCCO3)nnc2-c2ccco2)cc1 (stereo not shown),-2.89
20,O=C(c1ccco1)N1CCN(S(=O)(=O)c2ccc3c(c2)OCCO3)CC1,4.86
21,COc1ccc(-c2nc3ccccc3n2OC(C)C(=O)O)cc1 (stereo not shown),10.6
22,C=Cn1cc[n+](CC(=O)c2ccc(OC)cc2)c1.[Br-],-0.497

row,SMILES,"hERG current change (%, negative = inhibition) at 1uM [%]"
1,CCN(Cc1ccncc1)C(=O)c1ccccc1NS(=O)(=O)c1ccc(F)cc1,11.5
2,CN(C)C(=O)c1cc(C(=O)c2ccccc2)c[nH]1,5.32
3,CCOc1ccc(C(=O)NCC(=O)N2CCC3CCCCC3C2)cc1OCC (stereo not shown),6.92
4,CC(=O)Nc1ccc(S(=O)(=O)N2CCNC(=O)CC2)cc1,7.55
5,COc1cccc(-n2c(SCC(=O)Nc3cc(C)on3)nc3c([nH]c4ccccc43)c2=O)c1,12.1
6,CCN(C(=O)COC(=O)/C=C/c1cnc2ccccc2n1)c1ccccc1,0.829
7,Cc1ccc(S(=O)(=O)NCC(C)NS(C)(=O)=O)cc1 (stereo not shown),16.8
8,Cc1ccc(C2(c3ccc(C)cc3)CC2C(=O)Nc2ccc([N+](=O)[O-])cc2O)cc1 (stereo not shown),8.54
9,CN(C)c1nc(-c2cccnc2)nc(-c2ccc(Cl)cc2)c1C#N,24.7
10,O=C1NC(=O)N(CCc2ccc(F)cc2)C(=O)/C1=C/c1ccco1,1.52
11,CC12CCC3c4ccc(O)cc4CCC3C1CC(O)C2O (stereo not shown),10.7
12,Cl.c1ccc([C@H]2CN3CCSC3=N2)cc1,9.75
13,Cc1cc(=O)oc2cc(OCC(=O)Nc3ccc(N4CCC(C)CC4)cc3)ccc12,19.1
14,O=C(c1ccc(Cl)c(Cl)c1)c1cc(-c2ccccn2)c(N2CCOCC2)s1,-1.05
15,O=C1N/C(=N/c2ccccn2)SC1Cc1ccccc1 (stereo not shown),2.36
16,CN1CCN(C(c2cc3cc4c(cc3[nH]c2=O)OCCO4)c2nnnn2C2CCCC2)CC1 (stereo not shown),0.355
17,COCC1CCCCN1C(=O)c1cccc(OC2CCN(S(C)(=O)=O)CC2)c1 (stereo not shown),15
18,Cc1ccc(S(=O)(=O)NCCN2CCOCC2)cc1C,3.39
19,Cc1ccc2sc(N(CCCN(C)C)C(=O)c3ccc(S(=O)(=O)N(C)C4CCCCC4)cc3)nc2c1C.Cl,2.47
20,CCCn1c(C(Cc2ccccc2)NC(=O)COC)nc2ccccc21 (stereo not shown),9.92
21,CCOc1ccc(/C=C2/Sc3ccc(C(=O)N4CCN(C(=O)c5ccco5)CC4)cc3N(C)C2=O)cc1OC,-21.7
22,Cc1ccc(C(c2nnnn2CS(=O)(=O)c2ccc(C)cc2)N2CCCC2)cc1 (stereo not shown),9.65
